Measured values published in patent publication US9562022B2 (priority 2009, dated 2017).

Test system: P23H opsin
Conditions: 20 μM test compound; HEK 293 cells; % of mature P23H opsin (~52 kDA) relative to control 9-cis retinal at 20 uM defined as 100% response

Row | Compound | Increase in Mature P23H Opsin [% @ 20 μM]
1 | CC1=C(/C=C/C(=O)N2CCN(C(=O)NC(C)C)CC2)C(C)(C)CCC1 [Compound 37, (E)-N-Isopropyl-4-(3-(2,6,6-trimethylcyclohex-1-enyl)acryloyl)piperazine-1-carboxamide] | 136
2 | CC1=C(/C=C/C(=O)N2CCCN(C(=O)NC(C)C)CC2)C(C)(C)CCC1 [Compound 17, (E)-N-Isopropyl-4-(3-(2,6,6-trimethylcyclohex-1-enyl)acryloyl)-1,4-diazepane-1-carboxamide] | 132
3 | CNC(=O)N1CCCN(C(=O)/C=C/C2=C(C)CCCC2(C)C)CC1 [Compound 14, (E)-N-Methyl-4-(3-(2,6,6-trimethylcyclohex-1-enyl)acryloyl)-1,4-diazepane-1-carboxamide] | 144
4 | CCNC(=S)N1CCN(C(=O)/C=C/C2=C(C)CCCC2(C)C)CC1 [Compound 44, (E)-N-Ethyl-4-(3-(2,6,6-trimethylcyclohex-1-enyl)acryloyl)piperazine-1-carbothioamide] | 136
5 | CC1=C(/C=C/C(=O)N2CCOCC2)C(C)(C)CCC1 [Compound 6, (E)-1-Morpholino-3-(2,6,6-trimethylcyclohex-1-enyl)prop-2-en-1-one] | 113
6 | CCCNC(=S)N1CCN(C(=O)/C=C/C2=C(C)CCCC2(C)C)CC1 [Compound 45, (E)-N-Propyl-4-(3-(2,6,6-trimethylcyclohex-1-enyl)acryloyl)piperazine-1-carbothioamide] | 122
7 | CCCN1CCN(C(=O)/C=C/C2=C(C)CCCC2(C)C)CC1 [Compound 29, (E)-1-(4-Propylpiperazin-1-yl)-3-(2,6,6-trimethylcyclohex-1-enyl)prop-2-en-1-one] | 97
8 | CCS(=O)(=O)N1CCCN(C(=O)/C=C/C2=C(C)CCCC2(C)C)CC1 [Compound 21, (E)-1-(4-(Ethylsulfonyl)-1,4-diazepan-1-yl)-3-(2,6,6-trimethylcyclohex-1-enyl)prop-2-en-1-one] | 89
9 | CCNC(=O)N1CCCN(C(=O)/C=C/C2=C(C)CCCC2(C)C)CC1 [Compound 15, (E)-N-Ethyl-4-(3-(2,6,6-trimethylcyclohex-1-enyl)acryloyl)-1,4-diazepane-1-carboxamide] | 113
10 | CNC(=O)N1CCN(C(=O)/C=C/C2=C(C)CCCC2(C)C)CC1 [Compound 34, (E)-N-Methyl-4-(3-(2,6,6-trimethylcyclohex-1-enyl)acryloyl)piperazine-1-carboxamide] | 155

Same assay, conditions: control at 20 uM, defined as producing a 100% response

Row | Compound | % of mature P23H opsin (~52 kDA) produced in the HEK 293 cells [%]
11 | CC1=C(/C=C/C(C)=C\C=C\C(C)=C\C=O)C(C)(C)CCC1 [9-cis retinal, reference compound] | 100
